From paper PMC4242493
This is one part of the list. The list includes weakly bound sequences.

Biological target: MaxL homodimer (UniProt P61244)
Assay: universal protein-binding microarray (PBM)
Conditions: PBS-based mixture, 10 nM His-tagged protein dimer, 2% milk, 200 ng/uL BSA, 50 ng/uL salmon testes DNA, 0.02% TX-100; detection with Alexa 488 anti-His …; high values mean tight binding; most listed sequences are background and not binding sites; double strand, one strand shown

Chain of UniProt P61244 (P61244 whole entry): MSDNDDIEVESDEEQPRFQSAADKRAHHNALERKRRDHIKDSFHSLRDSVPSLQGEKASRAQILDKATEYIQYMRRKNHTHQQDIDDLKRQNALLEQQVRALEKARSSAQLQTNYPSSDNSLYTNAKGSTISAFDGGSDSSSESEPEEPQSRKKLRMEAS

Q: CGAGACCA was tested. Which binding signal (normalized occupancy) did it give?
A: 0.0884

Q: With ATCACCGA as the sequence, how does the binding signal (normalized occupancy) read?
A: 0.0729

Q: GAAAGTCA was tested. Which binding signal (normalized occupancy) did it give?
A: 0.0794

Q: Which binding signal (normalized occupancy) does the source give for GGGCCAAA here?
A: 0.0712

Q: Which binding signal (normalized occupancy) does the source give for GTCTTAGA here?
A: 0.0791

Q: With GAAATAGA as the sequence, how does the binding signal (normalized occupancy) read?
A: 0.0803

Q: For GCATCCTA, which binding signal (normalized occupancy) is on record?
A: 0.0746

Q: How did the binding signal (normalized occupancy) turn out when AGCAAGGC was run?
A: 0.0744

Q: Which binding signal (normalized occupancy) does the source give for CACAGGCA here?
A: 0.0832

Q: How did the binding signal (normalized occupancy) turn out when ACATCCAA was run?
A: 0.07

Q: For AGTCCCCC, which binding signal (normalized occupancy) is on record?
A: 0.0801

Q: For GGACCGAC, which binding signal (normalized occupancy) is on record?
A: 0.0727

Q: Which binding signal (normalized occupancy) does the source give for CTCCTTCA here?
A: 0.0734

Q: With ATTCCGTC as the sequence, how does the binding signal (normalized occupancy) read?
A: 0.0768

Q: ACCCAAAG was tested. Which binding signal (normalized occupancy) did it give?
A: 0.072

Q: For AACGCCAC, which binding signal (normalized occupancy) is on record?
A: 0.0741

Q: Which binding signal (normalized occupancy) does the source give for GTGCTCAA here?
A: 0.0771

Q: With ACGATATA as the sequence, how does the binding signal (normalized occupancy) read?
A: 0.0854

Q: Which binding signal (normalized occupancy) does the source give for CGACACGC here?
A: 0.09

Q: GCCACACC was tested. Which binding signal (normalized occupancy) did it give?
A: 0.085

Q: With ACAGTGTA as the sequence, how does the binding signal (normalized occupancy) read?
A: 0.0763

Q: GCACTCTA was tested. Which binding signal (normalized occupancy) did it give?
A: 0.0786

Q: TCCTCCCA was tested. Which binding signal (normalized occupancy) did it give?
A: 0.077

Q: With ATCCCGTG as the sequence, how does the binding signal (normalized occupancy) read?
A: 0.0875

Q: Which binding signal (normalized occupancy) does the source give for CCCGCTCA here?
A: 0.0743

Q: ATTCCACC was tested. Which binding signal (normalized occupancy) did it give?
A: 0.082

Q: With GCTAGACA as the sequence, how does the binding signal (normalized occupancy) read?
A: 0.0691

Q: AAAAGACG was tested. Which binding signal (normalized occupancy) did it give?
A: 0.0726

Q: How did the binding signal (normalized occupancy) turn out when AATGTCGG was run?
A: 0.0774

Q: For CAATAATC, which binding signal (normalized occupancy) is on record?
A: 0.0771

Q: With CTAACAGA as the sequence, how does the binding signal (normalized occupancy) read?
A: 0.0747

Q: GAGCGTAC was tested. Which binding signal (normalized occupancy) did it give?
A: 0.0725

Q: How did the binding signal (normalized occupancy) turn out when GTTACTGA was run?
A: 0.0729

Q: How did the binding signal (normalized occupancy) turn out when TTCTAGAA was run?
A: 0.0693

Q: How did the binding signal (normalized occupancy) turn out when AACCTTTC was run?
A: 0.0742

Q: Which binding signal (normalized occupancy) does the source give for CTGGCAGC here?
A: 0.0699

Q: With AAGAAGGA as the sequence, how does the binding signal (normalized occupancy) read?
A: 0.0794

Q: For CATGTGTC, which binding signal (normalized occupancy) is on record?
A: 0.125

Q: For CTTAGAGC, which binding signal (normalized occupancy) is on record?
A: 0.0674

Q: With AGTTACGG as the sequence, how does the binding signal (normalized occupancy) read?
A: 0.0714

Q: With AAATGAGA as the sequence, how does the binding signal (normalized occupancy) read?
A: 0.0767

Q: How did the binding signal (normalized occupancy) turn out when AGGATGCA was run?
A: 0.0762

Q: With GGGGGCTA as the sequence, how does the binding signal (normalized occupancy) read?
A: 0.0764

Q: AAACCCCA was tested. Which binding signal (normalized occupancy) did it give?
A: 0.0788

Q: With CCGGCCTA as the sequence, how does the binding signal (normalized occupancy) read?
A: 0.067

Q: For CAAACGTC, which binding signal (normalized occupancy) is on record?
A: 0.0739

Q: With CAGGGACC as the sequence, how does the binding signal (normalized occupancy) read?
A: 0.0713

Q: For ATATGAGG, which binding signal (normalized occupancy) is on record?
A: 0.0865

Q: With GACATAAC as the sequence, how does the binding signal (normalized occupancy) read?
A: 0.0839

Q: Which binding signal (normalized occupancy) does the source give for CATCCGCA here?
A: 0.077

Q: For CCTCTTGA, which binding signal (normalized occupancy) is on record?
A: 0.0745

Q: With ATTCGGAC as the sequence, how does the binding signal (normalized occupancy) read?
A: 0.0776

Q: How did the binding signal (normalized occupancy) turn out when AACCCCGT was run?
A: 0.0803

Q: For CCTGGTCC, which binding signal (normalized occupancy) is on record?
A: 0.0714

Q: How did the binding signal (normalized occupancy) turn out when ATAACCAC was run?
A: 0.0843

Q: How did the binding signal (normalized occupancy) turn out when AATGGCTC was run?
A: 0.0777

Q: For AGCCGTTG, which binding signal (normalized occupancy) is on record?
A: 0.0696

Q: Which binding signal (normalized occupancy) does the source give for GCCTGCGC here?
A: 0.0702

Q: AGTTATAG was tested. Which binding signal (normalized occupancy) did it give?
A: 0.0847

Q: For ATTGAGAA, which binding signal (normalized occupancy) is on record?
A: 0.0755

Q: Which binding signal (normalized occupancy) does the source give for CCCCGGGC here?
A: 0.0667

Q: ACGCCTTC was tested. Which binding signal (normalized occupancy) did it give?
A: 0.0729

Q: How did the binding signal (normalized occupancy) turn out when GGTTATGA was run?
A: 0.0822

Q: CCGATGCC was tested. Which binding signal (normalized occupancy) did it give?
A: 0.0718

Q: AATGCCCA was tested. Which binding signal (normalized occupancy) did it give?
A: 0.0798

Q: How did the binding signal (normalized occupancy) turn out when GCCATCCC was run?
A: 0.0771

Q: CCCGAAAG was tested. Which binding signal (normalized occupancy) did it give?
A: 0.074

Q: How did the binding signal (normalized occupancy) turn out when AACTTGAT was run?
A: 0.081

Q: Which binding signal (normalized occupancy) does the source give for CCCCCACA here?
A: 0.0839

Q: With AATGTCTG as the sequence, how does the binding signal (normalized occupancy) read?
A: 0.0745

Q: CTGAAGAA was tested. Which binding signal (normalized occupancy) did it give?
A: 0.0692

Q: With CTGTGCGC as the sequence, how does the binding signal (normalized occupancy) read?
A: 0.0728

Q: Which binding signal (normalized occupancy) does the source give for AATTGCGA here?
A: 0.0732

Q: For CGGAGCTA, which binding signal (normalized occupancy) is on record?
A: 0.0735

Q: For ATTACGAG, which binding signal (normalized occupancy) is on record?
A: 0.0804

Q: Which binding signal (normalized occupancy) does the source give for CTGGAAGA here?
A: 0.0732

Q: How did the binding signal (normalized occupancy) turn out when ATTAAAGA was run?
A: 0.0773

Q: CACCACCC was tested. Which binding signal (normalized occupancy) did it give?
A: 0.087

Q: ATTAGAAT was tested. Which binding signal (normalized occupancy) did it give?
A: 0.0789

Q: For AGGTTTGC, which binding signal (normalized occupancy) is on record?
A: 0.0755

Q: Which binding signal (normalized occupancy) does the source give for GTCTCGCA here?
A: 0.073

Q: With GGGCTTAA as the sequence, how does the binding signal (normalized occupancy) read?
A: 0.0695

Q: How did the binding signal (normalized occupancy) turn out when CCCACTGA was run?
A: 0.0716

Q: For AAACGTGT, which binding signal (normalized occupancy) is on record?
A: 0.1

Q: For TTAGTCAA, which binding signal (normalized occupancy) is on record?
A: 0.071

Q: Which binding signal (normalized occupancy) does the source give for CATGATCC here?
A: 0.0903
